Data as given in the supplement of paper PMC9911699.
Some of the results follow.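 How the source made its calls: active = average curve height above 101 Omnilog units; inactive = average height at or below 101.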 Most values come without repeats; read them as rough.

How the values were obtained:
[1] = tested on: Acinetobacter baumannii AB6870155; test: respiration area under curve on compound as sole carbon source (Biolog PM, 48 h) (arbitrary Omnilog units x h (AUC)); higher = more carbon source utilisation / respiration; conditions: Biolog inoculating fluid, temperature: 37 °C
[2] = tested on: Klebsiella pneumoniae KP6870155; test: as above; conditions: Biolog inoculating fluid, temperature: 37 °C

Compound | respiration area under curve [1] | respiration area under curve [2]
NCCc1ccc(O)cc1 [Tyramine] | inactive: 2920 | active: 10400
O=C(O)CC(Br)C(=O)O (stereo not drawn) [Bromo Succinic Acid] | inactive: 7560 | active: 8110
NCC(O)c1ccc(O)cc1 (racemic) [D,L-Octopamine] | inactive: 1310 | active: 11300
N#C[C@H](O[C@@H]1O[C@H](CO[C@@H]2O[C@H](CO)[C@@H](O)[C@H](O)[C@H]2O)[C@@H](O)[C@H](O)[C@H]1O)c1ccccc1 [Amygdalin] | inactive: 1480 | inactive: 5350
